Data on 26 molecules can be found in ChEMBL document CHEMBL5606458, “ASAP - ZIKV NS2B-NS3 protease fluorescence single point” (2024).

The experiment deals with Nonstructural protein 3 (Zika virus) (UniProt A0A024AXB9).
Setting [1] is: PRVABC59, Concentration 15.0 uM, Number of replicates 1.0.
Setting [2] is: PRVABC59, Concentration 50.0 uM, Number of replicates 1.0.

Molecules are shown by their SMILES. Screen size: about 2,700 compounds; about 160 (5.9%) showed an effect of 50% or more. Some of the results follow.

Usually inhibition stands for the relative decrease from the control value, in per cent.

Sequence of UniProt A0A024AXB9 (A0A024AXB9 as listed by the source): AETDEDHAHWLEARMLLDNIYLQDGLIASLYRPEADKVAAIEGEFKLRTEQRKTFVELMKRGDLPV

On to `O=C(Nc1ccc(F)c(F)c1Br)c1cc(Cl)ccc1NS(=O)(=O)c1ccc(Oc2ccccc2Cl)cc1`, for which the inhibition under setting [1] was 22.3%.
As for `O=Cc1ccc(N2CCC(C(=O)NCC(=O)Nc3ccc(F)c(F)c3)CC2)cc1`, the inhibition under setting [2] came to 22.6%.
For the molecule `O=Cc1ccc(N2CCC(C(=O)Nc3cc(Br)ccc3F)CC2)cc1`, the inhibition under setting [2] stood at 20.2%.
For `O=Cc1ccc(N2CCC(C(=O)NCC3(c4ccccc4)CCCC3)CC2)cc1`, the inhibition under setting [2] is -8.82%.
In the case of `CC(C)n1c(CNC(=O)C2CCN(c3ccc(C=O)cc3)CC2)nc2ccccc21`, under “PRVABC59, Concentration 10.0 uM, Number of replicates 1.0”, the inhibition was determined as 17.5%.
As to `c1ccc2c([C@H]3CCCN(Cc4n[nH]c5ccccc45)C3)c[nH]c2c1`, the inhibition is 14.8% (PRVABC59, Concentration 49.5 uM, Number of replicates 2.0, Standard deviation 3.6587058790697027 %); 4.19% (PRVABC59, Concentration 99.01 uM, Number of replicates 2.0, Standard deviation 26.693125215040073 %); 23.4% (PRVABC59, Concentration 198.0 uM, Number of replicates 2.0, Standard deviation 3.5149783821517926 %).
Take `Cc1cc(CO)c2cccc(NC(=O)Cc3c[nH]c4ccccc34)c2n1`: the inhibition was determined as 0.348% (PRVABC59, Concentration 49.95 uM, Number of replicates 2.0, Standard deviation 1.957076435136205 %) and 15.2% (PRVABC59, Concentration 99.9 uM, Number of replicates 2.0, Standard deviation 1.2143902959611252 %).
As to `Cc1cnccc1NC(=O)c1ccc2c(c1)COCC2`, the inhibition is, setting by setting: (PRVABC59, Concentration 49.5 uM, Number of replicates 2.0, Standard deviation 2.69695726690351 %) -1.9%; (PRVABC59, Concentration 99.01 uM, Number of replicates 2.0, Standard deviation 3.0402064405563363 %) 0.025%; (PRVABC59, Concentration 198.0 uM, Number of replicates 2.0, Standard deviation 1.8497312779646569 %) 0.206%.
As for `O=C(NCc1ccc(-c2ncc[nH]2)cc1)[C@@]1(c2ccc(F)cc2)CCCNC1`, the inhibition runs as follows: (PRVABC59, Concentration 49.5 uM, Number of replicates 2.0, Standard deviation 2.3187650947227487 %) 1.31%; (PRVABC59, Concentration 99.01 uM, Number of replicates 2.0, Standard deviation 2.204769965646303 %) 2.13%; (PRVABC59, Concentration 198.0 uM, Number of replicates 2.0, Standard deviation 1.9171913551037998 %) 4.87%.
For `Cc1nnccc1Cn1cc(C2CCNCC2)c(C)n1`, the inhibition runs as follows: (PRVABC59, Concentration 49.5 uM, Number of replicates 2.0, Standard deviation 2.7090336165782265 %) -2.75%; (PRVABC59, Concentration 99.01 uM, Number of replicates 2.0, Standard deviation 2.112474130988979 %) -1.31%; (PRVABC59, Concentration 198.0 uM, Number of replicates 2.0, Standard deviation 2.1104311573378225 %) -0.938%.
For the molecule `c1ccc(-c2coc(CNCc3nnc4ccccn34)c2)cc1`, the inhibition by setting is: (PRVABC59, Concentration 49.5 uM, Number of replicates 2.0, Standard deviation 1.1547683946800986 %) -0.032%; (PRVABC59, Concentration 99.01 uM, Number of replicates 2.0, Standard deviation 0.7824365600264931 %) -0.626%; (PRVABC59, Concentration 198.0 uM, Number of replicates 2.0, Standard deviation 0.5665918856495316 %) 1.91%.
As to `COc1ccccc1N1CCN(CCCNC(=O)c2cc(Cl)ccc2NS(=O)(=O)c2ccc(Oc3ccccc3Cl)cc2)CC1`, the inhibition under setting [1] was determined as 0.762%.
On to `O=C(c1nc2ccccc2[nH]1)N1CC[C@H](n2cc3ccccc3n2)C1`, for which the inhibition reads like this: (PRVABC59, Concentration 49.5 uM, Number of replicates 2.0, Standard deviation 1.8149018809985271 %) 2.53%; (PRVABC59, Concentration 99.01 uM, Number of replicates 2.0, Standard deviation 1.0997073724638302 %) 4.57%; (PRVABC59, Concentration 198.0 uM, Number of replicates 2.0, Standard deviation 2.2147953100610436 %) 4.59%.
As for `Cc1cc(CO)c2cccc(Cc3cccc(NC(=O)c4cc(C(=O)O)[nH]n4)c3)c2n1`, the inhibition runs as follows: (PRVABC59, Concentration 49.95 uM, Number of replicates 2.0, Standard deviation 0.809256243461067 %) 3.27%; (PRVABC59, Concentration 99.9 uM, Number of replicates 2.0, Standard deviation 2.152927108194932 %) 7.39%.
Consider `O=Cc1ccc(N2CCC(C(=O)N3CCN(c4ncccn4)CC3)CC2)cc1`, for which, under setting [2], the inhibition worked out at 22.4%.
In the case of `CNC(=O)c1cc(Cl)ccc1NS(=O)(=O)c1ccc2[nH]cnc2c1`, the inhibition (PRVABC59, Concentration 49.5 uM, Number of replicates 2.0, Standard deviation 2.3657282322003765 %) is -9.41%.
Turning to `CS(=O)(=O)C1CCN(C(=O)c2cc(Cl)ccc2NS(=O)(=O)c2ccc(Oc3ccccc3Cl)cc2)CC1`, the inhibition under setting [1] was -1.24%.
For the molecule `C=CCN(Cc1cccc(OC)c1)C(=O)c1cc(Cl)ccc1NS(=O)(=O)c1ccc(Oc2ccccc2Cl)cc1`, the inhibition under setting [1] came out at 28.9%.
On the same count and under the same terms, the figure for `O=C(CNC(=O)c1cc(Cl)ccc1NS(=O)(=O)c1ccc(Oc2ccccc2Cl)cc1)Nc1ccc(F)c(F)c1` is 48.8%.
`Cc1ccc(CNC(=O)C2CCN(C(=O)C3CCN(c4ccc(C=O)cc4)CC3)CC2)cc1`: under setting [2], the inhibition stood at 28%.
Regarding `COc1ccccc1[C@H](C)NC(=O)c1cc(Cl)ccc1NS(=O)(=O)c1ccc(Oc2ccccc2Cl)cc1`, the inhibition under setting [1] was determined as 26.2%.
Turning to `Cc1ccc(C)n1CCN1CCN(C(=O)C2CCN(c3ccc(C=O)cc3)CC2)CC1`, the inhibition under setting [2] amounted to 10.3%.
With `Cc1nn(Cc2ccc3[nH]cnc3c2)cc1C1CCNCC1`, the inhibition reads like this: (PRVABC59, Concentration 49.5 uM, Number of replicates 2.0, Standard deviation 3.2905497434323143 %) 1.73%; (PRVABC59, Concentration 99.01 uM, Number of replicates 2.0, Standard deviation 4.369012930308915 %) 3.09%; (PRVABC59, Concentration 198.0 uM, Number of replicates 2.0, Standard deviation 1.1716639282832062 %) 2.4%.
In the case of `CN(Cc1ccc(N2CCOCC2)cc1)C(=O)C1CCN(c2ccc(C=O)cc2)CC1`, the inhibition under setting [2] was 21.5%.
On to `CCS(=O)(=O)CCN(C)C(=O)C1CCN(c2ccc(C=O)cc2)CC1`, for which, under setting [2], the inhibition came out at 23.1%.
`Cc1nc([C@H]2CCN(C(=O)c3n[nH]cc3[C@H]3CCCNC3)C2)n[nH]1`: the inhibition (PRVABC59, Concentration 49.5 uM, Number of replicates 2.0, Standard deviation 7.696952726937103 %) was -4.4%; the inhibition (PRVABC59, Concentration 99.01 uM, Number of replicates 2.0, Standard deviation 2.0798394152552206 %) was -7.33%; the inhibition (PRVABC59, Concentration 198.0 uM, Number of replicates 2.0, Standard deviation 3.139088341959503 %) is -5.94%.
